# Test results taken from ChEMBL document CHEMBL5606458, “ASAP - ZIKV NS2B-NS3 protease fluorescence single point” (2024).
# Screen size: about 2,700 compounds; about 160 (5.9%) showed an effect of 50% or more. Some of the results follow.
# Molecular target: Nonstructural protein 3 (Zika virus) (UniProt A0A024AXB9)
# [1] = PRVABC59, Concentration 10.0 uM, Number of replicates 1.0
# [2] = PRVABC59, Concentration 50.0 uM, Number of replicates 1.0
# [3] = PRVABC59, Concentration 15.0 uM, Number of replicates 1.0
# UniProt A0A024AXB9, sequence (A0A024AXB9 as listed by the source): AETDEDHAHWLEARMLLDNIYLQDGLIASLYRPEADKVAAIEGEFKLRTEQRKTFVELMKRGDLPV
compound,measurement,setting,value
C#CCN(Cc1ccc(C)cc1)C(=O)C1CCN(c2ccc(C=O)cc2)CC1,inhibition,[1],25.1%
O=Cc1ccc(N2CCC(C(=O)Nc3ccc(OCc4ccccn4)c(Cl)c3)CC2)cc1,inhibition,[2],24.3%
COc1ccccc1N1CCN(C(=O)C2CCN(c3ccc(C=O)cc3)CC2)CC1,inhibition,[2],19.5%
CN(Cc1csc(-c2ccccc2)n1)C(=O)C1CCN(c2ccc(C=O)cc2)CC1,inhibition,[2],23.9%
O=C1Nc2c(Br)cccc2C[C@@]12CCCN2,inhibition,"PRVABC59, Concentration 49.5 uM, Number of replicates 2.0, Standard deviation 1.738787201398763 %",-0.883%
same,inhibition,"PRVABC59, Concentration 99.01 uM, Number of replicates 2.0, Standard deviation 0.670473109245803 %",-0.31%
same,inhibition,"PRVABC59, Concentration 198.0 uM, Number of replicates 2.0, Standard deviation 1.300556324581161 %",3%
O=C(NCCc1nc(-c2ccc(Cl)cc2)no1)c1cc(Cl)ccc1NS(=O)(=O)c1ccc(Oc2ccccc2Cl)cc1,inhibition,[3],20.2%
COc1cc(CS(=O)(=O)CCCC(F)(F)F)nc(N2CCNCC2)n1,inhibition,"PRVABC59, Concentration 49.5 uM, Number of replicates 2.0, Standard deviation 2.487167137463286 %",1.65%
same,inhibition,"PRVABC59, Concentration 99.01 uM, Number of replicates 2.0, Standard deviation 2.1684988514331613 %",3.72%
same,inhibition,"PRVABC59, Concentration 198.0 uM, Number of replicates 2.0, Standard deviation 2.4379419680893664 %",6.21%
C[C@@H](Cc1ccc(O)cc1)NC(=O)C1CCN(c2ccc(C=O)cc2)CC1,inhibition,[2],24.3%
O=C(Nc1ccccc1OCC(F)(F)F)c1cc(Cl)ccc1NS(=O)(=O)c1ccc(Oc2ccccc2Cl)cc1,inhibition,[3],48.1%
COc1ccc2ccccc2c1CCNC(=O)C1CCN(c2ccc(C=O)cc2)CC1,inhibition,[2],24.7%
O=Cc1ccc(N2CCC(C(=O)N[C@@H]3CCCN(Cc4ccccc4)C3)CC2)cc1,inhibition,[2],23.2%
O=C(c1cc(Cl)ccc1NS(=O)(=O)c1ccc(Oc2ccccc2Cl)cc1)N1CCN(c2ccccc2O)CC1,inhibition,[3],-1.02%
O=Cc1ccc(N2CCC(C(=O)Nc3cncc(Br)c3)CC2)cc1,inhibition,[2],24.3%
COc1cc(F)c(CNC(=O)C2CCN(c3ccc(C=O)cc3)CC2)c(F)c1,inhibition,[1],12.5%
Cc1cc(CO)c2cccc(Cc3cccc(C(=O)N4CC[C@@H](O)C4)c3)c2n1,inhibition,"PRVABC59, Concentration 49.95 uM, Number of replicates 2.0, Standard deviation 1.677907174542838 %",-9.27%
same,inhibition,"PRVABC59, Concentration 99.9 uM, Number of replicates 2.0, Standard deviation 1.3580557527180275 %",-9.55%
CN(Cc1nc2ccccc2n1C)C(=O)c1cc(Cl)ccc1NS(=O)(=O)c1ccc(Oc2ccccc2Cl)cc1,inhibition,[3],13%
COc1cc(CNC(=O)C2CCN(c3ccc(C=O)cc3)CC2)ccc1O,inhibition,[1],25.4%
Cc1cnccc1NC(=O)c1cccn(CC(C)C)c1=O,inhibition,"PRVABC59, Concentration 49.5 uM, Number of replicates 2.0, Standard deviation 0.2976335420448987 %",1.09%
same,inhibition,"PRVABC59, Concentration 99.01 uM, Number of replicates 2.0, Standard deviation 1.0257428986345465 %",0.585%
same,inhibition,"PRVABC59, Concentration 198.0 uM, Number of replicates 2.0, Standard deviation 0.8138681623593715 %",-1.05%
O=C(c1ccc2c(c1)B(O)OC2)N1CCN[C@H](c2ccc(Cl)cc2)C1,inhibition,"PRVABC59, Concentration 49.5 uM, Number of replicates 2.0, Standard deviation 0.1657054768360982 %",-1.89%
same,inhibition,"PRVABC59, Concentration 99.01 uM, Number of replicates 2.0, Standard deviation 0.8575259332425326 %",-0.309%
same,inhibition,"PRVABC59, Concentration 198.0 uM, Number of replicates 2.0, Standard deviation 0.5861832581239415 %",3.15%
Cc1cc(CO)c2cccc(Cc3ccccc3C(=O)NCCN3CCOCC3)c2n1,inhibition,"PRVABC59, Concentration 99.9 uM, Number of replicates 2.0, Standard deviation 0.9595535911248555 %",-8.41%
Nc1ccc(-c2cccc3c2COB3O)cn1,inhibition,"PRVABC59, Concentration 99.5 uM, Number of replicates 2.0, Standard deviation 1.8761276805996356 %",-4.95%
same,inhibition,"PRVABC59, Concentration 198.0 uM, Number of replicates 2.0, Standard deviation 3.2865185238127927 %",-4.86%
same,inhibition,"PRVABC59, Concentration 500.0 uM, Number of replicates 2.0, Standard deviation 6.545878292794741 %",1.91%
O=C(NCCc1ccc(O)c(O)c1)c1cc(Cl)ccc1NS(=O)(=O)c1ccc(Oc2ccccc2Cl)cc1,inhibition,[3],45.1%
COc1ccc2ccccc2c1CCNC(=O)c1cc(Cl)ccc1NS(=O)(=O)c1ccc(Oc2ccccc2Cl)cc1,inhibition,[3],29.5%
Cc1cc(CO)c2cccc(NC(=O)Cc3nnc(C)[nH]3)c2n1,inhibition,"PRVABC59, Concentration 49.95 uM, Number of replicates 2.0, Standard deviation 2.3535096922296743 %",9.35%
same,inhibition,"PRVABC59, Concentration 99.9 uM, Number of replicates 2.0, Standard deviation 3.1815030758395326 %",21.3%
CN(C)C(=O)CN1CCN(C(=O)c2cc(Cl)ccc2NS(=O)(=O)c2ccc(Oc3ccccc3Cl)cc2)CC1,inhibition,[3],3.21%
